Values marked as one replicate rest on one cluster of the flow cell; about a third of the high ones do not repeat.
Tested on: ATP
Assay: switch fluorescence ratio, 500 uM ATP over buffer (Cy3 cluster intensity, sum of 5 cycles each) (fold (ratio)); higher = stronger signal-on switching upon ATP binding; sequences stand for … in TCGTCGGCAGCGTCAGATGTGTATAAGAGACAGTTTTTTTTTTTTTTTTTTTTTTTTT…TC
Conditions: aptamer strand: ATP DNA aptamer (quencher-CACCTGGGGGAGTATTGCGGAGGAAGG + anchor), 100 nM annealed; ATP concentration: 500 uM; one replicate
Summary of the method: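 After annealing to 100 nM quencher-labelled ATP aptamer, Cy3-labelled switching-strand clusters on a modified Illumina MiSeq flow-cell were imaged in selection buffer. A second image followed after 15 min with 500 uM ATP at 22 °C, and five such buffer/ATP cycles were done, each separated by NaOH stripping and re-annealing. The fluorescence ratio, averaged per switch-domain sequence, is summed target-cycle over summed buffer-cycle Cy3 intensity per cluster, with clusters outside 100-1000 RFU excluded.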
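Further: ATP exposure 15 min at 22 °C before imaging.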

GAATATGACA
switch fluorescence ratio: 1.01

TTGGCGGTGC
switch fluorescence ratio: 0.997

CACTCGTTCA
switch fluorescence ratio: 1.04

AACTCTTGCC
switch fluorescence ratio: 1.03

CATATTTTCG
switch fluorescence ratio: 1.03

ATACCCAAAC
switch fluorescence ratio: 1.13

GTGGATAAGC
switch fluorescence ratio: 0.988

TCAGAGTGAG
switch fluorescence ratio: 0.952

GTACCCCAGA
switch fluorescence ratio: 1.26

TACCTAGCCC
switch fluorescence ratio: 1.09

GCCATTGGCC
switch fluorescence ratio: 1.02

ATTAATTCAA
switch fluorescence ratio: 1

TACTACATGC
switch fluorescence ratio: 0.967

ATGACCGTTC
switch fluorescence ratio: 1.04

GCGGGATACT
switch fluorescence ratio: 1.99

TATGTGTTGA
switch fluorescence ratio: 1.04

ACTATCACTC
switch fluorescence ratio: 1.21

GGAATAAACC
switch fluorescence ratio: 1.06

CGTTATAATC
switch fluorescence ratio: 1.09

ACTTTTATCG
switch fluorescence ratio: 1

TCCACTGATG
switch fluorescence ratio: 1.01

TTTCGTCTGA
switch fluorescence ratio: 1

GGCGTAAGTT
switch fluorescence ratio: 0.978

AAATTTGTGA
switch fluorescence ratio: 1

TACTCAATTG
switch fluorescence ratio: 0.941

CAATCACTCA
switch fluorescence ratio: 1.06

TGTGGCGCGG
switch fluorescence ratio: 0.977

TTATGAGTAT
switch fluorescence ratio: 1.01

TGCTACTACT
switch fluorescence ratio: 1.09

CCTCTTATAG
switch fluorescence ratio: 1.96

TATTTCATGG
switch fluorescence ratio: 1.07

TACCAATTGG
switch fluorescence ratio: 1.01

AGGGAAGCCA
switch fluorescence ratio: 0.999

TGATGATAAG
switch fluorescence ratio: 1.04

TACGTAAGTG
switch fluorescence ratio: 1.06

GCAAGGTAAT
switch fluorescence ratio: 1.01

CTAAGTACGT
switch fluorescence ratio: 1.19

CCGTGCGCCT
switch fluorescence ratio: 1.71

GAAGGCATCG
switch fluorescence ratio: 1.06

TGTCAAGCA
switch fluorescence ratio: 0.998

CGATCTGTGG
switch fluorescence ratio: 0.981

GTTGTGATTG
switch fluorescence ratio: 1.02

TGATTGCGGT
switch fluorescence ratio: 0.987

GTTTTTCCCA
switch fluorescence ratio: 1.02

TCCCTTGGCA
switch fluorescence ratio: 1.07

GAAGTTAGAG
switch fluorescence ratio: 0.94

CTAGTTGGG
switch fluorescence ratio: 1.01

CTATGTAGAC
switch fluorescence ratio: 1.15

ACTTAGGCGA
switch fluorescence ratio: 1.05

GCTGTGTCCT
switch fluorescence ratio: 0.985

CAGTTCGCAG
switch fluorescence ratio: 1.16

TGCCGACAAG
switch fluorescence ratio: 1.02

CGGAGCTAGT
switch fluorescence ratio: 2.16

CTCGTGAGAG
switch fluorescence ratio: 0.97

AAAGATGGAA
switch fluorescence ratio: 0.968

ATCAACCGAG
switch fluorescence ratio: 1.13

TCAAATGTAT
switch fluorescence ratio: 1.01

TAGGAGAGG
switch fluorescence ratio: 1.01

GTCCGGACAT
switch fluorescence ratio: 0.949

TCCCCCCGTC
switch fluorescence ratio: 0.899

GGGACGGCTA
switch fluorescence ratio: 0.99

AGGAAATCTG
switch fluorescence ratio: 0.987

GATGGTCAG
switch fluorescence ratio: 0.969

TCGCTGGATC
switch fluorescence ratio: 0.97

GGGACTGTG
switch fluorescence ratio: 1.02

GTTTTACAT
switch fluorescence ratio: 1.01

TGATTTTTAG
switch fluorescence ratio: 1.05

GGGCCTTACT
switch fluorescence ratio: 1.23

CTGAATGAG
switch fluorescence ratio: 0.955

GTGAATCTGC
switch fluorescence ratio: 1.01

GACGGCGATT
switch fluorescence ratio: 1.05

CGTTGTGATG
switch fluorescence ratio: 0.967

AAATGGGA
switch fluorescence ratio: 1.02

CCACAGCTAA
switch fluorescence ratio: 4.73

ATGCCCATGA
switch fluorescence ratio: 0.958

TCCGTGCCTG
switch fluorescence ratio: 0.981

ATGGACGAGA
switch fluorescence ratio: 1.03

TATCCTACTG
switch fluorescence ratio: 1

CGGTATCTTC
switch fluorescence ratio: 0.967

CCAGCCGAGC
switch fluorescence ratio: 1.1

TTATCCGCA
switch fluorescence ratio: 3.59

GTATCCCAGA
switch fluorescence ratio: 1.02

AACCGGACAG
switch fluorescence ratio: 1.15

CAGTGCCTTC
switch fluorescence ratio: 1.04

GTATTGTAGG
switch fluorescence ratio: 0.994

ACCTCCCTGG
switch fluorescence ratio: 1.32

TAGTGTGACC
switch fluorescence ratio: 1.02

TAATAAGTGT
switch fluorescence ratio: 0.976

CAAGTGGAAT
switch fluorescence ratio: 0.979

TCTTATCTTC
switch fluorescence ratio: 0.99

TGTGTAGGGT
switch fluorescence ratio: 1.02

ACTCACCCCC
switch fluorescence ratio: 2.33

ATAGGGCGTT
switch fluorescence ratio: 1.01

GGGTCGGCGT
switch fluorescence ratio: 1.05

ATCGGAAAGA
switch fluorescence ratio: 1.02

GACGTAGTGC
switch fluorescence ratio: 1.78

ATGATCTACA
switch fluorescence ratio: 0.985

CCTACCTTTC
switch fluorescence ratio: 1.26

TTCGGGCAGT
switch fluorescence ratio: 1.02

CCTGGACGCC
switch fluorescence ratio: 1.06

CAATGCACCG
switch fluorescence ratio: 0.998

TGAAAAAGGA
switch fluorescence ratio: 1

ATGGGCAGT
switch fluorescence ratio: 0.993

GACCTTTATG
switch fluorescence ratio: 0.927

TGGTACGTCG
switch fluorescence ratio: 0.938

TCTTTTCCAG
switch fluorescence ratio: 1.05

TGGCACCCCG
switch fluorescence ratio: 1.1

TCCGCGGAGT
switch fluorescence ratio: 1.07

CCCCCGGTCA
switch fluorescence ratio: 1.26

CCCGGGTCGT
switch fluorescence ratio: 1.18

TTTATGGT
switch fluorescence ratio: 1.02

TCTGAGAACT
switch fluorescence ratio: 0.994

CGACTATTCG
switch fluorescence ratio: 1.04

GGGTTGCAAG
switch fluorescence ratio: 0.965

TTAACGCGTA
switch fluorescence ratio: 1.01

AAAGGCTAAT
switch fluorescence ratio: 0.993

CCCATGTGGT
switch fluorescence ratio: 1.08

GTTATCCAAT
switch fluorescence ratio: 0.983

TTTGGCGGGT
switch fluorescence ratio: 1.03

TACGAGCAGC
switch fluorescence ratio: 1.06

TAAGAGCAGT
switch fluorescence ratio: 1.04

TCTCTCACGA
switch fluorescence ratio: 1.05

ATAAAAATGA
switch fluorescence ratio: 0.99

AGGAACGAAA
switch fluorescence ratio: 0.976

CCAAGAGTCT
switch fluorescence ratio: 1

TCGGCAGGGC
switch fluorescence ratio: 1.11

TGACACGGTG
switch fluorescence ratio: 1.05

ATGGTGGACG
switch fluorescence ratio: 1.04

CGGTAACCGT
switch fluorescence ratio: 0.986

AAATTATTAA
switch fluorescence ratio: 0.988

GCACCCGAGC
switch fluorescence ratio: 1.07

ACAGAATCAC
switch fluorescence ratio: 1.62

GTCTGGGCAC
switch fluorescence ratio: 1.02

ATGATACAAA
switch fluorescence ratio: 1.07

TGGTCGCCCA
switch fluorescence ratio: 0.981

CTCTGTGGTA
switch fluorescence ratio: 1.05

TTAAGACGAT
switch fluorescence ratio: 0.98

GCTCAAGGCA
switch fluorescence ratio: 1.01

GGGGCATCGA
switch fluorescence ratio: 1.04

TTTTTGCAGC
switch fluorescence ratio: 1.02

TGGGTCACGT
switch fluorescence ratio: 0.981

AAAATAACAC
switch fluorescence ratio: 1.08

GATCCTAGTA
switch fluorescence ratio: 1.02

GATTTCTGGT
switch fluorescence ratio: 0.983

TTCCTATGG
switch fluorescence ratio: 1.18

GCGTTTTCTT
switch fluorescence ratio: 0.99

GTCTTCAATT
switch fluorescence ratio: 0.982

AGATCGAAAC
switch fluorescence ratio: 1.03

GACACTAAG
switch fluorescence ratio: 1.1

GACGCCAGTC
switch fluorescence ratio: 1.01

TCTTATGAT
switch fluorescence ratio: 1.02

CGTCATCGTG
switch fluorescence ratio: 0.969

GAGTCTTGAG
switch fluorescence ratio: 1

TTTCATCGGG
switch fluorescence ratio: 1.05

TTAACGAACC
switch fluorescence ratio: 1.38

ATTGTCGTAC
switch fluorescence ratio: 1.07

CTTGAAGGT
switch fluorescence ratio: 0.97

AATAAATTGG
switch fluorescence ratio: 0.959

ATCTCAGCAT
switch fluorescence ratio: 1.92

TGCTTTGTGC
switch fluorescence ratio: 1.04

TCCATCCCT
switch fluorescence ratio: 1.06

TCAGCCTCGC
switch fluorescence ratio: 1

TCAGGGAGAA
switch fluorescence ratio: 0.975

CTGGAGCGGA
switch fluorescence ratio: 1.13

TGTGTGTCCT
switch fluorescence ratio: 1.01

GTTAAGGGTC
switch fluorescence ratio: 1.03

ACCGGGCATG
switch fluorescence ratio: 1

TTAACGTTTT
switch fluorescence ratio: 1.02

CTACTCATAG
switch fluorescence ratio: 1.11

TGGTGCGGGA
switch fluorescence ratio: 1.07

TGTTTTACA
switch fluorescence ratio: 1.06

GGCTCCTGTC
switch fluorescence ratio: 1.05

TAGTCAGGT
switch fluorescence ratio: 1

AGGAGCTTGT
switch fluorescence ratio: 0.991

CGCCGGCCGG
switch fluorescence ratio: 1.06

GGGTATCAGC
switch fluorescence ratio: 1

CGCTACGGTC
switch fluorescence ratio: 1.05

CTTGAGCCTA
switch fluorescence ratio: 1.02

TAAAGACGTT
switch fluorescence ratio: 0.997

AGAAATCCAG
switch fluorescence ratio: 1.02

AAGTATAGT
switch fluorescence ratio: 1.01

ACGTTGGGTG
switch fluorescence ratio: 1.07

TTTGCGCTAA
switch fluorescence ratio: 2.06

TTGGTCTACC
switch fluorescence ratio: 0.946

TGGCATTTTG
switch fluorescence ratio: 1.01

TTCATTGGAT
switch fluorescence ratio: 0.988

TGTGATCTTG
switch fluorescence ratio: 0.982

TATGTTTTG
switch fluorescence ratio: 1.01

CTTACAGGGA
switch fluorescence ratio: 0.972

CGGTGAGACA
switch fluorescence ratio: 1.03

TTTTCTCAGT
switch fluorescence ratio: 0.97

AAGGACGAAA
switch fluorescence ratio: 1.07

CAGAGTTGTA
switch fluorescence ratio: 0.999

ACATGCATGC
switch fluorescence ratio: 0.993

AAAAACCTCA
switch fluorescence ratio: 1.2

ATTGGAGTAA
switch fluorescence ratio: 0.945

GAGATAGCT
switch fluorescence ratio: 0.995

GAATCACCTT
switch fluorescence ratio: 1.14

AGCCATTATG
switch fluorescence ratio: 1

GTGCTATATG
switch fluorescence ratio: 0.982

GCATGCCATG
switch fluorescence ratio: 1.02
